Data from PMC6331339.
These are yes or no findings as the source states them, for the method shown. In cells and extracts the contact can be indirect. Some entries that bind do so weakly or less than the wild type.

Amino acid sequences for entries named in this document (tags omitted).
UniProt Q09472: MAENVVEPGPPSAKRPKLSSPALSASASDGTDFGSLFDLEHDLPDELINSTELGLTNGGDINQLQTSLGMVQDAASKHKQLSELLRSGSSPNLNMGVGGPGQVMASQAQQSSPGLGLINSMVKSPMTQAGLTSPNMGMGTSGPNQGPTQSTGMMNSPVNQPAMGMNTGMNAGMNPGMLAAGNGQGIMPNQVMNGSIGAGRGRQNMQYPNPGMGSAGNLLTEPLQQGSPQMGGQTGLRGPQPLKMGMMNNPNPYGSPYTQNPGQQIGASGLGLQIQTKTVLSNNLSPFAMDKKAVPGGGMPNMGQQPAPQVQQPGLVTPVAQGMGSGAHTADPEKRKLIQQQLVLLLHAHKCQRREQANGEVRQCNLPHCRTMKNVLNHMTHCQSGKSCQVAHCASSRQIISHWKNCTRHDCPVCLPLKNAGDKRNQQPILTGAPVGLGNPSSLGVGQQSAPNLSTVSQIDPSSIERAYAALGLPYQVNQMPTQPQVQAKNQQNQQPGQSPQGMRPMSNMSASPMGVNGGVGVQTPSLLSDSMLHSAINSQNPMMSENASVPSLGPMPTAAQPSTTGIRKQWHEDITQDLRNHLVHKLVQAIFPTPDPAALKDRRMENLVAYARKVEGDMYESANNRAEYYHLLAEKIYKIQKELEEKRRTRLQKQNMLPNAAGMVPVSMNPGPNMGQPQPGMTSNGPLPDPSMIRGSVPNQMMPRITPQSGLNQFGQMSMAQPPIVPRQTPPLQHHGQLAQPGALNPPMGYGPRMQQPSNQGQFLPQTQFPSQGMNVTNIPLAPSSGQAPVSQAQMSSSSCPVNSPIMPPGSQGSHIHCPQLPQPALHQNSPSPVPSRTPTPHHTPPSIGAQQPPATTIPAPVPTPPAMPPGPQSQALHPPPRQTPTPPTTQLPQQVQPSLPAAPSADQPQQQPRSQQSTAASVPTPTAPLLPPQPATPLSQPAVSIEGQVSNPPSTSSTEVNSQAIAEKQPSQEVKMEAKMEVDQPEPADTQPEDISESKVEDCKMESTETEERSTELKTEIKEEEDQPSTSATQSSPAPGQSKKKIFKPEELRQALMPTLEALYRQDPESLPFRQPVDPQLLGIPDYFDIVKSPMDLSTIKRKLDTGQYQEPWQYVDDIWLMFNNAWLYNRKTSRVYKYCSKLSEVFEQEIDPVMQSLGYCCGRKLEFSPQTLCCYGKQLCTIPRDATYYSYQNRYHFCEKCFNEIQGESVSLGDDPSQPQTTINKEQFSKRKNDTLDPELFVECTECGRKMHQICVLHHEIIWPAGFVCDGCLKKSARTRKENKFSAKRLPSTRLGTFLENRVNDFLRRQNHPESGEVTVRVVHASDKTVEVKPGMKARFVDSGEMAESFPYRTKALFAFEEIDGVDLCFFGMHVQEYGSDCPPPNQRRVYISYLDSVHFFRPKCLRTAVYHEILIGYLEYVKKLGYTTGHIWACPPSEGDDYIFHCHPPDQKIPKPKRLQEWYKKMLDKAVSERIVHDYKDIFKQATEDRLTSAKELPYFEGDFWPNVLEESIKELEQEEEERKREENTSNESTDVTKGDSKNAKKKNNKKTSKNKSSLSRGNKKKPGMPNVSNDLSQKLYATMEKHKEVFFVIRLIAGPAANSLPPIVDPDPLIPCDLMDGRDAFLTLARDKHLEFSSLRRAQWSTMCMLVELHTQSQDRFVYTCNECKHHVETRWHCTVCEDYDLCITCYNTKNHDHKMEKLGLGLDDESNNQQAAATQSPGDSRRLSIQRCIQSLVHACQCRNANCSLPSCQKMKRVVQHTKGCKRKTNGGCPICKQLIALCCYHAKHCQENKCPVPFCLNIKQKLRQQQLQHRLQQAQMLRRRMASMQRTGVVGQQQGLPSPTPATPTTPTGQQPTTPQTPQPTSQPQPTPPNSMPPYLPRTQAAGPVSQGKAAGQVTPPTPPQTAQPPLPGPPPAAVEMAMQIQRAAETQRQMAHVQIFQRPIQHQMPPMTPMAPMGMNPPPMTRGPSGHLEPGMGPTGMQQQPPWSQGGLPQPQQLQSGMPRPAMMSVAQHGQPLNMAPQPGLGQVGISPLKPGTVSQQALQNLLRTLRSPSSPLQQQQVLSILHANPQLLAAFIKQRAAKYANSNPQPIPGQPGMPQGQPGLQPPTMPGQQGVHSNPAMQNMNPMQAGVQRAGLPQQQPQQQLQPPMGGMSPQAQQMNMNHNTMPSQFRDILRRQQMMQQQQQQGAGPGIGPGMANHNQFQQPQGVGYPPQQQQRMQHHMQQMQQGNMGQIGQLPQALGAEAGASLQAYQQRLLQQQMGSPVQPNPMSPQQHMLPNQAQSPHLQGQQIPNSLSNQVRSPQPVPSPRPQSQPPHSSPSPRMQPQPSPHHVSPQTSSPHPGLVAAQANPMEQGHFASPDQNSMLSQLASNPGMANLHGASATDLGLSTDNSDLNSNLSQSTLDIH
UniProt Q8TB45: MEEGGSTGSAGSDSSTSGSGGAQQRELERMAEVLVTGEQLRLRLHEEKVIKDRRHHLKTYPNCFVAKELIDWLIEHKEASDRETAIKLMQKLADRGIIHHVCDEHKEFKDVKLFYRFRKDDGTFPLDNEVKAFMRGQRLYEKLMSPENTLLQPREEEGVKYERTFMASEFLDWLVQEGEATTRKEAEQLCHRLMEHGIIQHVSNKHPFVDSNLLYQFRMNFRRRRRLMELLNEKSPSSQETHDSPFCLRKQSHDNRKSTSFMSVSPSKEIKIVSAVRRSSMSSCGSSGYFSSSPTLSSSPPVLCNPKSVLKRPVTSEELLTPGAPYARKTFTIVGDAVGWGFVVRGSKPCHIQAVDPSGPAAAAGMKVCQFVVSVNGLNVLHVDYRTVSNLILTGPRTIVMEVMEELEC
UniProt Q8N122: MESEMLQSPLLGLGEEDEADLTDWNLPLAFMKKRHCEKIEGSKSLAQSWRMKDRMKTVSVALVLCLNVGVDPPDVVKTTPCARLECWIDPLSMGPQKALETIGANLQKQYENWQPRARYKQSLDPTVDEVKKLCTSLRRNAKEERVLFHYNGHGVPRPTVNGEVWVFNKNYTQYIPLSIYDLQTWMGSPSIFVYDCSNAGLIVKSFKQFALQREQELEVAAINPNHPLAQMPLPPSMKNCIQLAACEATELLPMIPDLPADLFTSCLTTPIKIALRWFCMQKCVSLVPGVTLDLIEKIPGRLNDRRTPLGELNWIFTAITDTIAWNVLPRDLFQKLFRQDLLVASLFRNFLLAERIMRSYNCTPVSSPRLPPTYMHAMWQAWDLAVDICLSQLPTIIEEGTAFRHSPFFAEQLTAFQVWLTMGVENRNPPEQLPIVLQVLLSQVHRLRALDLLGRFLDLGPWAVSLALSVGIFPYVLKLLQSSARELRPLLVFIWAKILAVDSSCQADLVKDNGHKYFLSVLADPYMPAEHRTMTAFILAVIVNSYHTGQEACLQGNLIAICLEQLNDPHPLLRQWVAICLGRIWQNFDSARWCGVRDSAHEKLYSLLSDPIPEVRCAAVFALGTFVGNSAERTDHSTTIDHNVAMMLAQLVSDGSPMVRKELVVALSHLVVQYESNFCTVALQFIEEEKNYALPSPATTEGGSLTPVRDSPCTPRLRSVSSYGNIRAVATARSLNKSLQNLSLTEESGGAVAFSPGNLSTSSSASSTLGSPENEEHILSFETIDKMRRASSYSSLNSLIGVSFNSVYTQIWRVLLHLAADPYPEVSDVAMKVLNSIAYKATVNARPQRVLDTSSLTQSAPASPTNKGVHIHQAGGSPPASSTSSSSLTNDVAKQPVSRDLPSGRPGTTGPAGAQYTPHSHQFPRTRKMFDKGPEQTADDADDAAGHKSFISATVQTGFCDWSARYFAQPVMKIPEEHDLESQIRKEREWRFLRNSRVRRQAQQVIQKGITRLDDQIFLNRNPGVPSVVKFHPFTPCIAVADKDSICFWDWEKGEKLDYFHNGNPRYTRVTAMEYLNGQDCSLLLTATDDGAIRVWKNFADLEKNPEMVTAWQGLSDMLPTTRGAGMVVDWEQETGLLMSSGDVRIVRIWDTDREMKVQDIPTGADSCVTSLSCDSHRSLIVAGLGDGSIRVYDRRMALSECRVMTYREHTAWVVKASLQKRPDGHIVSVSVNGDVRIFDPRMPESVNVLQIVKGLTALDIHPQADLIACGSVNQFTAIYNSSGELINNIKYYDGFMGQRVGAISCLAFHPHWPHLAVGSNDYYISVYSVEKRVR

What was measured:
[1] = target: EP300 acetyltransferase (human (endogenous in HeLa)) (UniProt Q09472); test: co-IP; IP with EP300 antibody from lysate of cells transfected with GFP- or YFP-tagged mTORC1 constructs; overnight at 4°C, Dynabeads-protein G; blot
[2] = target: YFP-proline-rich Akt substrate of 40 kDa (PRAS40) (UniProt Q96B36); test: co-IP; GFP-Trap beads hold the GFP- or YFP-tagged protein from lysate of transfected cells; 10 mM Tris-HCl pH 7.4, 150 mM NaCl, 0.5 mM EDTA, 0.3% CHAPS; 1 h at 4°C; partners found by blot
[3] = target: YFP-DEP domain-containing mTOR-interacting protein (DEPTOR) (UniProt Q8TB45); test: as above
[4] = target: YFP-Raptor (regulatory-associated protein of mammalian target of rapamycin), wild type (human) (UniProt Q8N122); test: as above

In the case of “YFP-proline-rich Akt substrate of 40 kDa (PRAS40) (from UniProt Q96B36 1-256)”, the binding [1] is reported as “no binding”.

In the case of “EP300 acetyltransferase (from UniProt Q09472 1-2414) (enzyme)”, the binding [2] is reported as “no binding”, the binding [3] is reported as “no binding” and the binding [4] is reported as “binds”.

“YFP-Raptor (regulatory-associated protein of mammalian target of rapamycin), wild type (from UniProt Q8N122 1-1335)” was tested, and the binding [1] was “binds”.

With “YFP-DEP domain-containing mTOR-interacting protein (DEPTOR) (from UniProt Q8TB45 1-409)” the binding [1] was “no binding”.
